{"source": "PubChem BioAssay AID463173", "about": "(ICCB-Longwood Screening Facility, Harvard Medical School, 2010)", "note": "About 4,300 (8.3%) of roughly 52,000 compounds were called active. Rule as the data show it: active = survival mostly below about 52% (no sharp cut-off); inactive = mostly above about 56%. The list shows a part of the results."}
{"system": "DeltatarO mutant", "experiment": "S. aureus survival, RN4220 and DeltatarO strains – OD600, teichoic acid synthesis inhibitors, primary screen (AID 463173)", "conditions": "S. aureus RN4220 wild type/DeltatarO growth, OD600, 18 h, hits give low values, screened at 18.75 µg/mL (by protocol)"}
{"compound": "CCOC(=O)c1cc(-c2ccccc2)n(CC(=O)Nc2ccccc2OCC)c1C", "survival": "inactive: 83%"}
{"compound": "Cn1ncc2c(Nc3cccc(C#N)c3)ncnc21", "survival": "inactive: 86%"}
{"compound": "CCc1cccc(C)c1NC(=O)CSc1n[nH]c(-c2ccccc2)n1", "survival": "inactive: 89%"}
{"compound": "COc1cc(NC(=O)CCN2CCN(c3ccccc3)CC2)cc(OC)c1", "survival": "inactive: 150%"}
{"compound": "Cc1cc(C)cc(NC(=O)C(=O)NCC(c2cccnc2)N2CCOCC2)c1", "note": "(centres undefined)", "survival": "inactive: 107%"}
{"compound": "Cc1ccc(Cl)cc1NC(=O)CCn1cnc2ccccc2c1=O", "survival": "inactive: 81%"}
{"compound": "CCOC(=O)c1ccc(NC(=O)C2=C(C)C(=O)OC23CCN(C(C)=O)CC3)cc1", "survival": "inactive: 80%"}
{"compound": "CCOC(=O)c1cccc(NC(=O)c2cc(C)nc3c2c(C)nn3-c2ccc(C)cc2)c1", "survival": "inactive: 39%"}
{"compound": "COc1cc(Nc2nc3ccc(Cl)cc3nc2-n2nc(C)cc2C)cc(OC)c1", "survival": "inactive: 66%"}
{"compound": "O=C(O)c1c2c(nc3ccccc13)-c1ccccc1CC2", "survival": "inactive: 85%"}
{"compound": "O=C(CN1C(=O)COc2ccc(S(=O)(=O)NC3CCCC3)cc21)NCc1ccccc1Cl", "survival": "inactive: 80%"}
{"compound": "O=C(O)C(F)(F)C12OC3C4C5CC(C6C5C3C61)C42", "note": "(centres undefined)", "survival": "inactive: 72%"}
{"compound": "CC1CN(C(=O)N2CCC(C(=O)NCc3ccccc3F)CC2)c2cc(Cl)ccc2O1", "note": "(centres undefined)", "survival": "inactive: 60%"}
{"compound": "COc1ccccc1N1CCN(C(=O)Cn2c(=O)nc(-c3ccccc3)c3ccccc32)CC1", "survival": "inactive: 94%"}
{"compound": "CCOc1ccc(NC(=O)C(C)n2c(=O)cc(-c3ccccc3)c3c(C)nn(C)c32)cc1", "note": "(centres undefined)", "survival": "inactive: 96%"}
{"compound": "COc1cccc(NC(=O)N(Cc2cc3ccc(C)cc3n3nnnc23)CC2CCCO2)c1", "note": "(centres undefined)", "survival": "inactive: 103%"}
{"compound": "CCCc1nc(=S)c2ccccc2[nH]1", "survival": "inactive: 61%"}
{"compound": "Cc1ccccc1OCCSc1nnc(-c2cccs2)o1", "survival": "inactive: 106%"}
{"compound": "CCC(C(=O)NCCC(C)C)N(C(=O)Cn1nnc(-c2ccc(C)cc2)n1)c1cccc(O)c1", "note": "(centres undefined)", "survival": "active: 37%"}
{"compound": "Cc1ccc(NC(=O)Cn2c(=O)n(CCC(C)C)c(=O)c3cccnc32)cc1C", "survival": "inactive: 70%"}
{"compound": "COC(=O)C1(CO)NC(c2ccccc2F)C2C(=O)N(c3ccccc3)C(=O)C21", "note": "(centres undefined)", "survival": "inactive: 86%"}
{"compound": "O=C(Cn1nnc(-c2cccnc2)n1)NCC1CCCO1", "note": "(centres undefined)", "survival": "inactive: 82%"}
{"compound": "COc1ccc(Cl)cc1NC(=O)Cn1c(=O)n(Cc2ccc(F)cc2)c(=O)c2cccnc21", "survival": "inactive: 64%"}
{"compound": "CC(=O)N1CCN(CC(O)COc2ccc(Br)cc2)CC1", "note": "(centres undefined)", "survival": "inactive: 89%"}
{"compound": "O=C(N/N=C1/CSC(=O)N1Cc1cccs1)c1cccs1", "survival": "inactive: 75%"}
{"compound": "CCN(CC)CCNC(=O)c1cc2c(-c3cccc(OC)c3)nn(C)c2s1", "survival": "inactive: 147%"}
{"compound": "Cc1ccc(C(=O)N2CCN(CCc3ccncc3)CC2)cc1", "survival": "inactive: 81%"}
{"compound": "CCOc1ccccc1NC(=O)Cn1c(=O)n(CCCC(=O)NCc2ccc(C)cc2)c(=O)c2ccccc21", "survival": "inactive: 78%"}
{"compound": "CCOC(=O)C1=C(SCC)c2cc3c(n2C1=O)CCCC3", "survival": "inactive: 83%"}
{"compound": "Cc1cccc2sc(N(Cc3cccnc3)C(=O)c3ccco3)nc12", "survival": "inactive: 83%"}
{"compound": "COc1ccccc1OCC(=O)NCCS(=O)(=O)N1CCN(c2ccccc2OC)CC1", "survival": "inactive: 96%"}
{"compound": "Cc1ccc2[nH]cc(C(c3ccccc3)c3ccc(Cl)s3)c2c1", "note": "(centres undefined)", "survival": "active: 10%"}
{"compound": "Cc1nn(C(C)C(=O)NCc2ccco2)c(=O)c2nn(-c3ccccc3)c(C)c12", "note": "(centres undefined)", "survival": "active: 37%"}
{"compound": "COc1ccccc1C(=O)Nc1ccc(-c2cc(C(F)(F)F)nn2-c2ccccc2)cc1", "survival": "inactive: 45%"}
{"compound": "CCOC(=O)c1c(C)[nH]c(C)c1S(=O)(=O)N1CCCC(C(=O)N2CCN(c3cccc(Cl)c3)CC2)C1", "note": "(centres undefined)", "survival": "inactive: 83%"}
{"compound": "O=C(CN(c1ccc2c(c1)OCCO2)S(=O)(=O)c1ccccc1)NCc1ccco1", "survival": "inactive: 85%"}
{"compound": "Cc1ccc2nc(-c3ccc(C)s3)c(Nc3ccc4c(c3)OCCO4)n2c1", "survival": "inactive: 108%"}
{"compound": "COc1ccc(CCNC(=O)CN(c2ccccc2)S(=O)(=O)N(C)C)cc1", "survival": "inactive: 79%"}
{"compound": "COc1ccccc1-c1nn(CCC(=O)Nc2ccccc2)c2nc(C)cc(C)c12", "survival": "inactive: 62%"}
{"compound": "O=C(NCc1ccccc1Cl)c1ccc2c(c1)NC(=O)C(CS(=O)(=O)Cc1ccc(Cl)cc1)N2", "note": "(centres undefined)", "survival": "inactive: 82%"}
{"compound": "O=C(Nc1ccc(F)c(F)c1)C(c1ccccc1)N1Cc2ccccc2C1=O", "note": "(centres undefined)", "survival": "inactive: 102%"}
{"compound": "CCOc1ccc(CNC(=O)c2cc3cc(S(=O)(=O)N4CCCCC4)ccc3n2C)cc1", "survival": "inactive: 89%"}
{"compound": "Oc1ccc(NCc2ccccc2OCc2ccccc2)cc1", "survival": "inactive: 61%"}
{"compound": "COc1ccc(C(=O)NCCc2csc(-c3ccc(Cl)cc3)n2)c(OC)c1", "survival": "inactive: 94%"}
{"compound": "CC(C)N(C(=O)Cn1c(-c2cccnc2)ccc(C#N)c1=O)C(C)C", "survival": "inactive: 84%"}
{"compound": "COC(=O)C1=CN(CCCN2CCCC2=O)C=C(C(=O)OC)C1c1cccs1", "survival": "inactive: 77%"}
{"compound": "O=C1CCCc2oc3c(c21)CCCC3", "survival": "inactive: 80%"}
{"compound": "CSc1ccc(CCNC(=O)CN2C(=O)COc3ccc(S(=O)(=O)N4CCCCCC4)cc32)cc1", "survival": "inactive: 50%"}
{"compound": "COc1ccc(S(=O)(=O)Nc2cccc(-c3ccc(N4CCCCC4)nn3)c2)cc1F", "survival": "inactive: 82%"}
{"compound": "CN1C(=O)c2ccccc2Sc2ccc(NC(=O)N3CCN(c4ccc(F)cc4)CC3)cc21", "survival": "inactive: 73%"}
{"compound": "COc1ccc(-c2nc(S(=O)(=O)c3ccccc3)c(N3CCC(C)CC3)o2)cc1", "survival": "inactive: 74%"}
{"compound": "COc1ccc(NC(=O)C(NS(=O)(=O)c2cccc3nsnc23)C(C)C)cc1OC", "note": "(centres undefined)", "survival": "inactive: 80%"}
{"compound": "COc1ccc(Br)cc1CNC(=O)CCSCc1ccc(Cl)cc1", "survival": "inactive: 73%"}
{"compound": "CCC(=O)N1CCc2cc(CNS(=O)(=O)c3cc(Cl)ccc3OC)ccc21", "survival": "inactive: 87%"}
{"compound": "O=c1cc(O)c2c(=O)n3c4c(cccc4c2o1)CCC3", "survival": "inactive: 94%"}
{"compound": "Cc1nn(CC(=O)N2CCN(c3ccccc3)CC2)c(=O)c2cc3sccc3n12", "survival": "inactive: 88%"}
{"compound": "Cc1ccc(OCCn2c(COc3ccc(Cl)cc3)nc3ccccc32)cc1", "survival": "inactive: 65%"}
{"compound": "CCN1CCN(c2cc(C)c3cc(NC(=O)c4cc(OC)cc(OC)c4)ccc3n2)CC1", "survival": "active: 47%"}
{"compound": "O=C(CC1N=C2c3ccccc3N=C(SCc3ccccc3Cl)N2C1=O)NC1CCCCC1", "note": "(centres undefined)", "survival": "inactive: 87%"}
